In US20260240958A1, “REPRESSOR FUSION PROTEIN SYSTEMS” (Scribe Therapeutics Inc., priority 2023, published 2026):

B1: DOMAIN_22153: repressor domain, Zalophus californianus, SEQ ID NO 204 (protein, listed as Zalophus californianus)
chain: VRMPVTFEDVAVTFTQEEWGQLDPAQRTLYQEVMLETCGLLVSLGCPLPKPELFYPLDHSPELQTLKRGLSPNSCPGDSTK
B2: DOMAIN_10123: repressor domain, Rattus norvegicus, SEQ ID NO 131 (protein, listed as Rattus norvegicus)
chain: ALVTFEDVAVRFTQEEWALLDPSQKILYRDVMRETYRNLTSVGINWECWDLEACFRSLGRNLRVQVVKRKCELTNSGPCAE

Test system: B2M locus
Test: B2M repression by HLA immunostaining and flow cytometry in HEK293T cells transfected with LTRP:gRNA plasmids
Conditions: 4 days post-transfection

Row | Molecule | B2M repression as second repressor domain in LTRP6 configuration
1 | B1 | highest level of B2M repression at 4 days post-transfection
2 | B2 | highest level of B2M repression at 4 days post-transfection
